Test results as given in patent US20080033007A1, “Substituted Tetrahydroisoquinoline Compounds for Cancer Therapy” (priority 2002, published 2008).

Experiments:
[1] = test system: C6 glioma cells; test: survival of C6 glioma cells after 96 hr treatment (Example 5); type: cell-based; settings: Rattus norvegicus, read-out: EC50, C6 glioma cell survival
[2] = test system: normal cultured rat astrocytes; test: differential culture cytotoxicity assay, normal astrocytes; type: cell-based; settings: Astrocyte, 96 h, percent survival vs concentration
Experimental: (§1) Normal cultured rat astrocytes and C6 rat glioma were used as a differential screen for a variety of 1,2,3,4-tetrahydroisoquinoline derivatives. […] To explore structure activity relationships (SAR) a number of 1,2,3,4-tetrahydroisoquinolines 2, 4, 5, 7, and 8 were synthesized and tested for antiglioma activity.
(§2) The astrocytes primary culture was derived from neonatal (4-8 days postpartum) rat pups as described by Geisert et al. The primary cultures were prepared as per McCarthy et al. Briefly, the rat pups were anesthetized on ice, decapitated, and the brains were removed. The cerebral cortex was removed, stripped of the meninges, and cut into small pieces of approximately 1 mm^2. The tissue was placed in 0.1% trypsin for 15 min and gently pipetted to produce a single cell suspension. The cell suspension was then rinsed in media and transferred to culture flasks. […]
(§3) The experimental treatment was the incubation of the cells with test compound for 96 h at 37° C., 5% CO2. The cells were fixed with 4% formaldehyde, stained with 0.1% cresylecth violet stain, and quantitated as per Wagner et a. […]
(§4) The cytotoxic character of each compound was reported as the percent survival, calculated as the average A560 for treated cells divided by A560 of untreated (negative control) cells, and expressed as a percentage. […]

[3] = test system: C6 rat glioma; test: differential culture cytotoxicity assay, C6 glioma; settings: 96 h, read-out: IC50 (μM) C6 Glioma, 96 h, percent survival vs concentration
Experimental: as §1, §2, §3, §4

Q: With `Cl.Oc1cc2c(cc1O)C(Cc1ccc(-c3ccccc3)cc1)NCC2` (racemic) [MMGS-155] as the compound, how does the EC50 [1] read?
A: The EC50 was 2300 ± 770 nM.

Q: And the IC50 [2]?
A: Its IC50 is roughly 29 µM.

Q: What about the IC50 [3] of the same compound?
A: Its IC50 is roughly 2.6 µM.
